{"source": "PubChem BioAssay (NCATS)", "note": "The inconclusive results got no clear call from the source; some entries with a clear call stand among them for comparison. No potency is given beside an inconclusive call; the fits are too rough. Activity calls are given as the source filed them. Calls come from the whole dose curve; as a rule, active = well fitted inhibition curve with a large enough effect; inconclusive = small, poorly fitted or top-dose-only effect; inactive = no such curve, though single readings can be large or run the other way. Potency is the fitted concentration of half-maximal effect; tags give direction and shape of the fitted curve."}
{"test": "qHTS Screen of the MIPE 4.0 Collection Against Ewings Sarcoma (EW8) (AID 1259255); note: nearly all actives have a fitted effect of over 35% in size", "settings": "EW8 Ewing sarcoma viability, CellTiter-Glo, 48 h; series mostly up to 45.8 µM", "in_short": "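Viability screen: 48 h incubation at 37C, 95% humidity, 5% CO2 with serially titrated compound, followed by CellTiter-Glo readout.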"}
{"smiles": "O=C(O)c1ccc(O)c2ncc(N3CCOCC3)cc12", "Potency": "inconclusive [inhibitor, single point]"}
{"smiles": "O=C(NOC[C@H](O)CO)c1ccc(F)c(F)c1Nc1ccc(I)cc1F", "Potency": "inconclusive [inhibitor, single point]"}
{"smiles": "COc1c(Cl)cc2c([nH]c3cnccc32)c1NC(=O)c1cccnc1C", "Potency": "inconclusive [inhibitor, partial curve, poor fit]"}
{"smiles": "CCCCN1CCC(CNC(=O)c2c3n(c4ccccc24)CCCO3)CC1", "Potency": "active: 14.8 µM"}
{"smiles": "C[C@]12CC[C@@H]3c4ccc(O)cc4CC[C@H]3[C@H]1[C@@H](O)[C@@H](O)[C@H]2O", "Potency": "inactive"}
{"smiles": "CCCCN(CCCC)CC(O)c1cc(Cl)cc2c1-c1ccc(Cl)cc1C2=Cc1ccc(Cl)cc1", "note": "(stereo not drawn)", "Potency": "inactive"}
{"smiles": "Cc1cccc(Nc2nc(N[C@@H]3CCCC[C@H]3N)ncc2C(N)=O)c1", "Potency": "inconclusive [inhibitor, partial curve]"}
{"smiles": "CN(C)C(=O)c1ccc(S(=O)(=O)c2ccc(NC(=O)[C@@](C)(O)C(F)(F)F)c(Cl)c2)cc1", "Potency": "inactive"}
{"smiles": "NC(=NCc1ccccc1)NC(=O)c1nc(Cl)c(N)nc1N", "Potency": "inconclusive [inhibitor, single point]"}
{"smiles": "CN(C(=O)c1ccc(F)cc1C(F)(F)F)C1CCN(c2nnc(-c3ccnn3C)c3ccccc23)CC1", "Potency": "inconclusive [inhibitor, partial curve]"}
{"smiles": "C[C@@H](NCc1cc2ccccc2[nH]1)c1cccc2ccccc12", "Potency": "inactive"}
{"smiles": "C[C@H](c1ccc(F)cc1CCCC(=O)O)N(c1cc(F)ccc1F)S(=O)(=O)c1ccc(Cl)cc1", "Potency": "inconclusive [inhibitor, partial curve]"}
{"smiles": "O=C1CN2Cc3c(ccc(Cl)c3Cl)N=C2N1", "Potency": "inconclusive [inhibitor, partial curve]"}
{"smiles": "COc1ccc(CCN2CCN(CCCc3ccccc3)CC2)cc1OC", "Potency": "inconclusive [inhibitor, partial curve, poor fit]"}
{"smiles": "CC(=O)N1CCN(c2ccc(OC[C@H]3CO[C@](Cn4ccnc4)(c4ccc(Cl)cc4Cl)O3)cc2)CC1", "Potency": "inconclusive [inhibitor, partial curve]"}
{"smiles": "CCCCCCCCCCCCCCCC(=O)O[C@H]1[C@@H](O)[C@@H](O)[C@@H]([C@H](NC(=O)[C@@H]2C[C@@H](CCC)CN2C)[C@H](C)Cl)O[C@@H]1SC", "Potency": "inconclusive [inhibitor, partial curve, poor fit]"}
{"smiles": "CCCCOCCOc1nc(-c2ccc(C(=O)O)c(F)c2)sc1C", "Potency": "inconclusive [inhibitor, single point]"}
{"smiles": "OC[C@H]1O[C@@H](OCCc2ccc(O)cc2)[C@H](O)[C@@H](O)[C@H]1O", "Potency": "inconclusive [inhibitor, partial curve, poor fit]"}
{"smiles": "C[C@H](O)[C@@H]1C(=O)N2C(C(=O)O)=C(S[C@@H]3CN[C@H](CNS(N)(=O)=O)C3)[C@@H](C)[C@@H]12", "Potency": "inactive"}
{"smiles": "O=C(O)c1cn(C2CC2)c2cc(N3CCNCC3)c(F)cc2c1=O", "Potency": "inactive"}
{"smiles": "Fc1ccc(CNc2ncnc3ccc(F)cc23)cc1", "Potency": "inconclusive [inhibitor, partial curve]"}
{"smiles": "CNC[C@@H](O)[C@@H](O)[C@H](O)[C@H](O)CO", "Potency": "inactive"}
{"smiles": "CN1CCN2c3ccccc3Cc3ccccc3C2C1", "note": "(stereo not drawn)", "Potency": "inconclusive [inhibitor, partial curve, poor fit]"}
{"smiles": "CCc1cccc2c3c([nH]c12)C(CC)(CC(=O)O)OCC3", "note": "(stereo not drawn)", "Potency": "inactive"}
{"smiles": "CCCCCCCc1ccc(CCc2cccc(O)c2C(=O)O)cc1", "Potency": "inconclusive [inhibitor, single point]"}
{"smiles": "NC(=O)Nc1cc(-c2cccc(F)c2)sc1C(=O)N[C@H]1CCCNC1", "Potency": "active: 0.166 µM"}
{"smiles": "COc1ccc(C(C)=O)c(O)c1", "Potency": "inactive"}
{"smiles": "C=CC(=O)Nc1cc2c(Nc3ccc(F)c(Cl)c3)ncnc2cc1OCCCN1CCOCC1", "Potency": "active: 16.6 µM"}
{"smiles": "c1ccc(CNc2nc(N3CCOc4ccccc43)nc3c2CCCC3)cc1", "Potency": "inconclusive [inhibitor, single point]"}
{"smiles": "COc1ccc2c(c1)c(CC(=O)O)c(C)n2C(=O)c1ccc(Cl)cc1", "Potency": "inactive"}
{"smiles": "Clc1ccc(COC(Cn2ccnc2)c2ccc(Cl)cc2Cl)c(Cl)c1", "note": "(stereo not drawn)", "Potency": "inconclusive [inhibitor, single point]"}
{"smiles": "CSc1cccc(Nc2ncc3cc(-c4c(Cl)cccc4Cl)c(=O)n(C)c3n2)c1", "Potency": "inconclusive [inhibitor, full curve, poor fit]"}
{"smiles": "N#CC[C@H](C1CCCC1)n1cc(-c2ncnc3[nH]ccc23)cn1", "Potency": "active: 16.6 µM"}
{"smiles": "OCCn1cc(-c2ccc3c(c2)CCC3=NO)c(-c2ccncc2)n1", "Potency": "inactive"}
{"smiles": "Cc1c(C(=O)Nc2ccc(N3C[C@@H](C)O[C@@H](C)C3)nc2)cccc1-c1ccc(OC(F)(F)F)cc1", "Potency": "inconclusive [inhibitor, full curve, poor fit]"}
{"smiles": "CCN(CC)CCOc1ccc(Cc2ccccc2)cc1", "Potency": "inconclusive [inhibitor, single point]"}
{"smiles": "CCCc1nn(C)c2c(=O)[nH]c(-c3cc(S(=O)(=O)N4CCN(C)CC4)ccc3OCC)nc12", "Potency": "inconclusive [inhibitor, partial curve]"}
{"smiles": "CC1(C)OC2CC3C4CC(F)C5=CC(=O)C=CC5(C)C4C(O)CC3(C)[C@]2(C(=O)CO)O1", "note": "(stereo partly drawn)", "Potency": "inactive"}
